{
  "source": "PubChem BioAssay AID1346428",
  "about": "(National Center for Advancing Translational Sciences (NCATS), 2018)",
  "note": "“And” between values parts separate entries of the source, which are not always exact repeats. Identical values can stand only once. Screen size: about 48,000 compounds; about 1,200 (2.5%) were called active. Another 2% or so got no clear call; they are omitted.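 How the source made its calls: active means activation of at least 60% and not above a set upper limit (about 1 call in 100 departs from these limits); inconclusive means activation of 40% to 60%, or above that upper limit; inactive means activation under 40%.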 This is one part of the list.",
  "data": [
    {"target": "Probable G-protein coupled receptor 32 (Homo sapiens) (UniProt O75388)", "sequence (O75388 whole entry, looked up)": "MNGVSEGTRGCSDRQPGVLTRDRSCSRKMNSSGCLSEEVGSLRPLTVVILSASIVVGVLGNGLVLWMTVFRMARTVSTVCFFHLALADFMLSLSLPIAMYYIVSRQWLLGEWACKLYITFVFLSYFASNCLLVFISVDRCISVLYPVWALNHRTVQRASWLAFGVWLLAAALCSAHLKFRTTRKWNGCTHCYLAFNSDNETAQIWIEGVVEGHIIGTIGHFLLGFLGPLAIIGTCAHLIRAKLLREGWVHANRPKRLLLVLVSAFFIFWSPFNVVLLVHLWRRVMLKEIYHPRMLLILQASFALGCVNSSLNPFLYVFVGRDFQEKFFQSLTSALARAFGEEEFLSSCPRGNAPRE", "test": "qHTS for Agonists of Human Resolvin D1 Receptor DRV1; further: 0% is about no effect", "details": "CHO-K1 GPR32 beta-arrestin PathHunter luminescence, 90 min; at 76.9 µM; active compounds read high; zero percent set by DMSO-only wells", "in_short": "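CHO-K1 cells stably expressing ProLink-tagged GPR32 and Enzyme Activator-tagged beta-arrestin were seeded at 2,500 cells/well overnight, exposed to compounds for 90 min at 37 °C, then read by beta-Gal complementation chemiluminescence after 1 h detection reagent.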", "values": [
      {"smiles": "O=C(Cc1ccc(Cl)cc1)NC1CC(=O)N(c2ccc3c(c2)OCCO3)C1", "note": "(stereo not drawn)", "activation": "inactive: -0.218%"},
      {"smiles": "COCCOC(=O)C1=C(C)NC(C)=C(C(=O)OC/C=C/c2ccccc2)C1c1cccc([N+](=O)[O-])c1", "note": "(stereo not drawn)", "activation": "inactive: -25.9% and inactive: -28.1%"},
      {"smiles": "Cc1ccccc1C(=O)N1CCC(c2nc(-c3ccc(S(=O)(=O)N4CCCC4)cc3)no2)CC1", "activation": "inactive: 0.163%"},
      {"smiles": "Cc1ccsc1CN(Cc1ccco1)c1cnc(S(C)(=O)=O)nc1C(=O)Nc1ccc(Cl)cc1", "activation": "inactive: -13.8%"},
      {"smiles": "Cn1c(=O)oc2cc(S(=O)(=O)CCC(=O)NCc3ccc(Cl)cc3)ccc21", "activation": "inactive: -12.4%"},
      {"smiles": "Clc1cccc(Nc2ncnc3c2nc2n3CCCCC2)c1", "activation": "inactive: 1.93%"},
      {"smiles": "Cc1ccc(NC(=O)N2CC=C(c3c[nH]c4ccccc34)CC2)cc1Cl", "activation": "inactive: -4.26%"},
      {"smiles": "CC1CCN(C(=O)CN2CC(C)Sc3ccccc32)CC1", "note": "(stereo not drawn)", "activation": "inactive: -9.45%"},
      {"smiles": "CCOCCn1ccc2c(OCC(=O)Nc3cc(C)cc(C)c3)cccc2c1=O", "activation": "inactive: 35.7%"},
      {"smiles": "COc1ccc(-c2cn3nc(SCC(=O)Nc4cccc(C)c4C)ccc3n2)cc1", "activation": "inactive: -7.45%"},
      {"smiles": "COc1ccc(Nc2nc3ccccc3n3c(N)nnc23)cc1", "activation": "inactive: -9.85%"},
      {"smiles": "Cc1ccc(NS(=O)(=O)c2ccc(-n3cccn3)cc2)c(Br)c1", "activation": "active: 71.7%"},
      {"smiles": "Cc1cccc(C(=O)Nc2ccc(OCc3cc(=O)n4ccc(C)cc4n3)cc2)c1", "activation": "inactive: 2.5%"},
      {"smiles": "CCC(Nc1ccc(-c2nc(-c3ccccn3)no2)cc1[N+](=O)[O-])c1ccccc1", "note": "(stereo not drawn)", "activation": "inactive: -11.5%"},
      {"smiles": "COc1cc2c(cc1OC)C(COc1cc(C)cc(C)c1)N(C(=O)C(C)(C)C)CC2", "note": "(stereo not drawn)", "activation": "inactive: -3.16%"},
      {"smiles": "CCCCN(C)C(=O)CCC(=O)NNc1nc2ccccc2c2nc(C)nn12", "activation": "inactive: -14%"},
      {"smiles": "Cc1ccc(C(c2sc3nc(-c4ccco4)nn3c2O)N2CCN(c3ccc(F)cc3)CC2)cc1", "note": "(stereo not drawn)", "activation": "inactive: -2.73%"},
      {"smiles": "COc1cc2c(C(=O)N(C)c3cccc(C(F)(F)F)c3)cn(CC(C)C)c(=O)c2cc1OC", "activation": "inactive: -11.4%"},
      {"smiles": "Cc1cccc(N2CCn3c2nc2c3c(=O)n(CCCc3ccccc3)c(=O)n2C)c1", "activation": "inactive: -3.6%"},
      {"smiles": "Cc1oc(-c2cccc(Cl)c2)nc1Cn1c(SCc2ccc(F)cc2)nc2cccnc21", "activation": "inactive: -19.9%"},
      {"smiles": "COc1cc(CN(C(=O)COc2ccccc2)c2ccccn2)cc(OC)c1OC", "activation": "inactive: -7.32%"},
      {"smiles": "Cc1ccc(C2CC(=O)Nc3c2c(C)nn3-c2nc(C)cc(C)n2)c(C)c1", "note": "(stereo not drawn)", "activation": "inactive: -3.53%"},
      {"smiles": "O=C(CCCCCn1c(=O)c2sccc2n(CC(=O)Nc2ccccc2F)c1=O)NCc1ccc2c(c1)OCO2", "activation": "inactive: -24.8%"}
    ]}
  ]
}
